Results reported in US20250361279A1 (Hoffmann-La Roche, published 2025).

T1: IL-7 receptor (IL-7R alpha chain and common gamma chain) on human T cells (human, UniProt P16871 21-459; P31785 23-369)
T1 sequence (looked up) 1: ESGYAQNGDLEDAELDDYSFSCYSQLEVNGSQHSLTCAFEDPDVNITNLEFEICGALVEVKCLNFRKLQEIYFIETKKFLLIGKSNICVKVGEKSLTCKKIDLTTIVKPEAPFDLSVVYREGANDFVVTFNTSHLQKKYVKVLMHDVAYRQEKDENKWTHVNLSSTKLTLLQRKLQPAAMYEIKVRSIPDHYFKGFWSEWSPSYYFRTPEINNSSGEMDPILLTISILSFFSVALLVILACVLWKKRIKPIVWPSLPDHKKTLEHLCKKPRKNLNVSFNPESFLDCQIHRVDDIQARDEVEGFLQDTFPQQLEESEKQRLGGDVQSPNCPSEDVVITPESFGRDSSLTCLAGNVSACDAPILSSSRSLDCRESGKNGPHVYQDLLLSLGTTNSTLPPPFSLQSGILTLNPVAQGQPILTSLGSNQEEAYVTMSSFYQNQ
T1 sequence (looked up) 2: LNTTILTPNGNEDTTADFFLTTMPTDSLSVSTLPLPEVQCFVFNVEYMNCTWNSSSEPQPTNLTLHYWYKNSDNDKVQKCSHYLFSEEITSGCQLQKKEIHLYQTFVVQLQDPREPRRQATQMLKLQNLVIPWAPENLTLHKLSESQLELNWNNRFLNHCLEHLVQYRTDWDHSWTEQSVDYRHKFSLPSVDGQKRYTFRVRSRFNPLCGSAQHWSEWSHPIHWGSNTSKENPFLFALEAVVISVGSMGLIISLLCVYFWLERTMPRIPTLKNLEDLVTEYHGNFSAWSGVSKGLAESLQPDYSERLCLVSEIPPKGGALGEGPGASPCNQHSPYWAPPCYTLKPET


Key:
[1] = biological target: T1, IL-7 receptor (IL-7R alpha chain and …); assay: cell-based or functional assay
[2] = biological target: human PD-1 on activated CD4 T cells (human, UniProt Q15116 25-288); assay: cell-based or functional assay

Binder	Potency reduction to PD1-IL7wt: EC50 (PD1+)/EC50 (PD1-IL7wt) [1]	STAT-5P AUC, PD1+ CD4 T cells [1]	STAT-5P AUC, PD1-blocked CD4 T cells [1]	Cis-delivery: fold increase in EC50, EC50 [with PD1bl]/EC50 [no PD1bl] [2]	Delta AUC (PD1+ vs PD1bl.) [2]
P1AH6006 (new PD1-IL7v, fully glycosylated; IL7 K81A, Q136K; (G2SG2)3 linker) (other) light: DIVMTQSPDSLAVSLGERATINCKASESVDTSDNSFIHWYQQKPGQSPKLLIYRSSTLESGVPDRFSGSGSGTDFTLTISSLQAEDVAVYYCQQNYDVPWTFGQGTKVEIKRTVAAPSVFIFPPSDEQLKSGTASVVCLLNNFYPREAKVQWKVDNALQSGNSQESVTEQDSKDSTYSLSSTLTLSKADYEKHKVYACEVTHQGLSSPVTKSFNRGEC heavy 1: EVQLLESGGGLVQPGGSLRLSCAASGFSFSSYTMSWVRQAPGKGLEWVATISGGGRDIYYPDSVKGRFTISRDNSKNTLYLQMNSLRAEDTAVYYCVLLTGRVYFALDSWGQGTLVTVSSASTKGPSVFPLAPSSKSTSGGTAALGCLVKDYFPEPVTVSWNSGALTSGVHTFPAVLQSSGLYSLSSVVTVPSSSLGTQTYICNVNHKPSNTKVDKKVEPKSCDKTHTCPPCPAPEAAGGPSVFLFPPKPKDTLMISRTPEVTCVVVDVSHEDPEVKFNWYVDGVEVHNAKTKPREEQYNSTYRVVSVLTVLHQDWLNGKEYKCKVSNKALGAPIEKTISKAKGQPREPQVCTLPPSRDELTKNQVSLSCAVKGFYPSDIAVEWESNGQPENNYKTTPPVLDSDGSFFLVSKLTVDKSRWQQGNVFSCSVMHEALHNHYTQKSLSLSPG heavy 2: EVQLLESGGGLVQPGGSLRLSCAASGFSFSSYTMSWVRQAPGKGLEWVATISGGGRDIYYPDSVKGRFTISRDNSKNTLYLQMNSLRAEDTAVYYCVLLTGRVYFALDSWGQGTLVTVSSASTKGPSVFPLAPSSKSTSGGTAALGCLVKDYFPEPVTVSWNSGALTSGVHTFPAVLQSSGLYSLSSVVTVPSSSLGTQTYICNVNHKPSNTKVDKKV[sequence of human IgG1 Fc with changes omitted]GGSGGGGSGGGGSGGDCDIEGKDGKQYESVLMVSIDQLLDSMKEIGSNCLNNEFNFFKRHICDANKEGMFLFRAARKLRQFLKMNSTGDFDLHLLAVSEGTTILLNCTGQVKGRKPAALGEAQPTKSLEENKSLKEQKKLNDLCFLKRLLKEIKTCWNKILMGTKEH	6.5 fold	108	67.4	5.2 fold	40.4
P1AH6008 (new PD1-IL7v, fully glycosylated; IL7 V18K, Q136K; (G2SG2)3 linker) (other) light: DIVMTQSPDSLAVSLGERATINCKASESVDTSDNSFIHWYQQKPGQSPKLLIYRSSTLESGVPDRFSGSGSGTDFTLTISSLQAEDVAVYYCQQNYDVPWTFGQGTKVEIKRTVAAPSVFIFPPSDEQLKSGTASVVCLLNNFYPREAKVQWKVDNALQSGNSQESVTEQDSKDSTYSLSSTLTLSKADYEKHKVYACEVTHQGLSSPVTKSFNRGEC heavy 1: EVQLLESGGGLVQPGGSLRLSCAASGFSFSSYTMSWVRQAPGKGLEWVATISGGGRDIYYPDSVKGRFTISRDNSKNTLYLQMNSLRAEDTAVYYCVLLTGRVYFALDSWGQGTLVTVSSASTKGPSVFPLAPSSKSTSGGTAALGCLVKDYFPEPVTVSWNSGALTSGVHTFPAVLQSSGLYSLSSVVTVPSSSLGTQTYICNVNHKPSNTKVDKKVEPKSCDKTHTCPPCPAPEAAGGPSVFLFPPKPKDTLMISRTPEVTCVVVDVSHEDPEVKFNWYVDGVEVHNAKTKPREEQYNSTYRVVSVLTVLHQDWLNGKEYKCKVSNKALGAPIEKTISKAKGQPREPQVCTLPPSRDELTKNQVSLSCAVKGFYPSDIAVEWESNGQPENNYKTTPPVLDSDGSFFLVSKLTVDKSRWQQGNVFSCSVMHEALHNHYTQKSLSLSPG heavy 2: EVQLLESGGGLVQPGGSLRLSCAASGFSFSSYTMSWVRQAPGKGLEWVATISGGGRDIYYPDSVKGRFTISRDNSKNTLYLQMNSLRAEDTAVYYCVLLTGRVYFALDSWGQGTLVTVSSASTKGPSVFPLAPSSKSTSGGTAALGCLVKDYFPEPVTVSWNSGALTSGVHTFPAVLQSSGLYSLSSVVTVPSSSLGTQTYICNVNHKPSNTKVDKKV[sequence of human IgG1 Fc with changes omitted]GGSGGGGSGGGGSGGDCDIEGKDGKQYESVLMKSIDQLLDSMKEIGSNCLNNEFNFFKRHICDANKEGMFLFRAARKLRQFLKMNSTGDFDLHLLKVSEGTTILLNCTGQVKGRKPAALGEAQPTKSLEENKSLKEQKKLNDLCFLKRLLKEIKTCWNKILMGTKEH	14.8 fold	82.5	43.3	8.7 fold	39.2
P1AH6009 (new PD1-IL7v, fully glycosylated; IL7 L77K, Q136; (G2SG2)3 linker) (other) light: DIVMTQSPDSLAVSLGERATINCKASESVDTSDNSFIHWYQQKPGQSPKLLIYRSSTLESGVPDRFSGSGSGTDFTLTISSLQAEDVAVYYCQQNYDVPWTFGQGTKVEIKRTVAAPSVFIFPPSDEQLKSGTASVVCLLNNFYPREAKVQWKVDNALQSGNSQESVTEQDSKDSTYSLSSTLTLSKADYEKHKVYACEVTHQGLSSPVTKSFNRGEC heavy 1: EVQLLESGGGLVQPGGSLRLSCAASGFSFSSYTMSWVRQAPGKGLEWVATISGGGRDIYYPDSVKGRFTISRDNSKNTLYLQMNSLRAEDTAVYYCVLLTGRVYFALDSWGQGTLVTVSSASTKGPSVFPLAPSSKSTSGGTAALGCLVKDYFPEPVTVSWNSGALTSGVHTFPAVLQSSGLYSLSSVVTVPSSSLGTQTYICNVNHKPSNTKVDKKVEPKSCDKTHTCPPCPAPEAAGGPSVFLFPPKPKDTLMISRTPEVTCVVVDVSHEDPEVKFNWYVDGVEVHNAKTKPREEQYNSTYRVVSVLTVLHQDWLNGKEYKCKVSNKALGAPIEKTISKAKGQPREPQVCTLPPSRDELTKNQVSLSCAVKGFYPSDIAVEWESNGQPENNYKTTPPVLDSDGSFFLVSKLTVDKSRWQQGNVFSCSVMHEALHNHYTQKSLSLSPG heavy 2: EVQLLESGGGLVQPGGSLRLSCAASGFSFSSYTMSWVRQAPGKGLEWVATISGGGRDIYYPDSVKGRFTISRDNSKNTLYLQMNSLRAEDTAVYYCVLLTGRVYFALDSWGQGTLVTVSSASTKGPSVFPLAPSSKSTSGGTAALGCLVKDYFPEPVTVSWNSGALTSGVHTFPAVLQSSGLYSLSSVVTVPSSSLGTQTYICNVNHKPSNTKVDKKV[sequence of human IgG1 Fc with changes omitted]GGSGGGGSGGGGSGGDCDIEGKDGKQYESVLMVSIDQLLDSMKEIGSNCLNNEFNFFKRHICDANKEGMFLFRAARKLRQFLKMNSTGDFDKHLLKVSEGTTILLNCTGQVKGRKPAALGEAQPTKSLEENKSLKEQKKLNDLCFLKRLLKEIKTCWNKILMGTKEH	12.7 fold	73	38.9	6.7 fold	34
P1AH6010 (new PD1-IL7v, fully glycosylated; IL7 L77K, G85K; (G2SG2)3 linker) (other) light: DIVMTQSPDSLAVSLGERATINCKASESVDTSDNSFIHWYQQKPGQSPKLLIYRSSTLESGVPDRFSGSGSGTDFTLTISSLQAEDVAVYYCQQNYDVPWTFGQGTKVEIKRTVAAPSVFIFPPSDEQLKSGTASVVCLLNNFYPREAKVQWKVDNALQSGNSQESVTEQDSKDSTYSLSSTLTLSKADYEKHKVYACEVTHQGLSSPVTKSFNRGEC heavy 1: EVQLLESGGGLVQPGGSLRLSCAASGFSFSSYTMSWVRQAPGKGLEWVATISGGGRDIYYPDSVKGRFTISRDNSKNTLYLQMNSLRAEDTAVYYCVLLTGRVYFALDSWGQGTLVTVSSASTKGPSVFPLAPSSKSTSGGTAALGCLVKDYFPEPVTVSWNSGALTSGVHTFPAVLQSSGLYSLSSVVTVPSSSLGTQTYICNVNHKPSNTKVDKKVEPKSCDKTHTCPPCPAPEAAGGPSVFLFPPKPKDTLMISRTPEVTCVVVDVSHEDPEVKFNWYVDGVEVHNAKTKPREEQYNSTYRVVSVLTVLHQDWLNGKEYKCKVSNKALGAPIEKTISKAKGQPREPQVCTLPPSRDELTKNQVSLSCAVKGFYPSDIAVEWESNGQPENNYKTTPPVLDSDGSFFLVSKLTVDKSRWQQGNVFSCSVMHEALHNHYTQKSLSLSPG heavy 2: EVQLLESGGGLVQPGGSLRLSCAASGFSFSSYTMSWVRQAPGKGLEWVATISGGGRDIYYPDSVKGRFTISRDNSKNTLYLQMNSLRAEDTAVYYCVLLTGRVYFALDSWGQGTLVTVSSASTKGPSVFPLAPSSKSTSGGTAALGCLVKDYFPEPVTVSWNSGALTSGVHTFPAVLQSSGLYSLSSVVTVPSSSLGTQTYICNVNHKPSNTKVDKKV[sequence of human IgG1 Fc with changes omitted]GGSGGGGSGGGGSGGDCDIEGKDGKQYESVLMVSIDQLLDSMKEIGSNCLNNEFNFFKRHICDANKEGMFLFRAARKLRQFLKMNSTGDFDKHLLKVSEKTTILLNCTGQVKGRKPAALGEAQPTKSLEENKSLKEQKKLNDLCFLKRLLQEIKTCWNKILMGTKEH	92.7 fold	7.1	7.8	–	-0.7
